Patent publication US20240368242A1 (SHATTUCK LABS, published 2024)

Experiments:
[1] = target: T1, SLC51B (human, UniProt Q86UW2); assay: microarray containing about 6,000 human membrane proteins
T1 construct: spot of the microarray of human membrane proteins; also called Solute Carrier Family 51 Beta Subunit
T1 sequence (single chain, looked up): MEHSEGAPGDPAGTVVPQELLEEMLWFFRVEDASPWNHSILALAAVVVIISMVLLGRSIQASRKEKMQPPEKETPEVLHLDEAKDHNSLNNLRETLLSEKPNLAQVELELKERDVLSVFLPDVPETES

[2] = target: Galectin-1 (human, UniProt P09382); assay: as above
UniProt P09382, sequence (P09382 2-135 limits assumed): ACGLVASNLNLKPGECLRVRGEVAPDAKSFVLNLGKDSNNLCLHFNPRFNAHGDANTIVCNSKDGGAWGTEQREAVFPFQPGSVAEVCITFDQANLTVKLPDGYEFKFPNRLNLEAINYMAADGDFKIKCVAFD

[3] = target: T2, Human FcγR1A; assay: SPR, 250 nM analyte on human FcγR1A
T2 construct: also called hFcγR1A
T2 chain: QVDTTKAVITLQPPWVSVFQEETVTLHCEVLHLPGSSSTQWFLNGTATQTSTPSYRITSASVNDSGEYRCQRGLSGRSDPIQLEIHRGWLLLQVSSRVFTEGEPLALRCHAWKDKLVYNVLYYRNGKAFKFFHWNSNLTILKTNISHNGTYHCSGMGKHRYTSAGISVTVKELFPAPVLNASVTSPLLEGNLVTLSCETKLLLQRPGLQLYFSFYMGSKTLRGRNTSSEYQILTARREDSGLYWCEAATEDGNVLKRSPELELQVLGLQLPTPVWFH

[4] = target: T3, recombinant human CD47 protein (human, UniProt Q08722 part only, limits assumed); assay: ELISA, plate-bound hCD47, detection with Goat αhCD172a and αGoat-HRP [second panel from the left]
T3 construct: also called hCD47

[5] = target: plate-bound human IgG; assay: ELISA, plate-bound capture drawn as hFc (legend: human IgG), detection with HRP Human αIgG [first panel from the left]
[6] = target: T4, human CD47 expressed on cells (HeLa/hCD47; Jurkat endogenous CD47) (human, UniProt Q08722); assay: flow cytometry on HeLa/hCD47 cells
T4 construct: whole, on cells
Excerpt: Cells were collected, washed, and stained with antibodies for the detection of the chimeric protein binding by flow cytometry.

[7] = target: recombinant human CD40 protein (human, UniProt P25942 part only); assay: ELISA, plate-bound hCD40, detection with Goat αhCD40L and αGoat-HRP [third panel from the left]
UniProt P25942, sequence (P25942 21-193 limits assumed): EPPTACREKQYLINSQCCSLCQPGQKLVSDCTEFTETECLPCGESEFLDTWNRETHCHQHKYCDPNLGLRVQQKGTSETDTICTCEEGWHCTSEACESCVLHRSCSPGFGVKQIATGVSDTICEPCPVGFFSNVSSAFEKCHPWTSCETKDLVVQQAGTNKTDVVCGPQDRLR

B1: human CSF1R-Fc-CD40L chimeric protein (Fc fusion)
chain: [sequence of about 500 residues omitted]SKYGPPCPPCPAPEFLGGPSVFLFPPKPKDQLMISRTPEVTCVVVDVSQEDPEVQFNWYVDGVEVHNAKTKPREEQFNSTYRVVSVLTVLHQDWLSGKEYKCKVSSKGLPSSIEKTISNATGQPREPQVYTLPPSQEEMTKNQVSLTCLVKGFYPSDIAVEWESNGQPENNYKTTPPVLDSDGSFFLYSRLTVDKSRWQEGNVFSCSVLHEALHNHYTQKSLSLSLGKIEGRMDHRRLDKIEDERNLHEDFVFMKTIQRCNTGERSLSLLNCEEIKSQFEGFVKDIMLNKEETKKENSFEMQKGDQNPQIAAHVISEASSKTTSVLQWAEKGYYTMSNNLVTLENGKQLTVKRQGLYYIYAQVTFCSNREASSQAPFIASLCLKSPGRFERILLRAANTHSSAKPCGQQSIHLGGVFELQPGASVFVNVTDPSQVSHGTGFTSFGLLKL
B1: binds [1]; binds [2].

B2: human CD172a(SIRPα)-Fc-CD40L chimeric protein (Fc fusion)
chain: [sequence of about 350 residues omitted]SKYGPPCPPCPAPEFLGGPSVFLFPPKPKDQLMISRTPEVTCVVVDVSQEDPEVQFNWYVDGVEVHNAKTKPREEQFNSTYRVVSVLTVLHQDWLSGKEYKCKVSSKGLPSSIEKTISNATGQPREPQVYTLPPSQEEMTKNQVSLTCLVKGFYPSDIAVEWESNGQPENNYKTTPPVLDSDGSFFLYSRLTVDKSRWQEGNVFSCSVLHEALHNHYTQKSLSLSLGKIEGRMDHRRLDKIEDERNLHEDFVFMKTIQRCNTGERSLSLLNCEEIKSQFEGFVKDIMLNKEETKKENSFEMQKGDQNPQIAAHVISEASSKTTSVLQWAEKGYYTMSNNLVTLENGKQLTVKRQGLYYIYAQVTFCSNREASSQAPFIASLCLKSPGRFERILLRAANTHSSAKPCGQQSIHLGGVFELQPGASVFVNVTDPSQVSHGTGFTSFGLLKL
notes: Glycosylated; dominant dimer band on non-reduced Western blot; also called SL-172154; hCD172a(SIRPα)-Fc-CD40L
With B2 the binding result [3] was “no binding (tested: 250 nM)”, the EC50 [4] was 1.12 nM and the EC50 [5] was 9.29 nM. It also gave an EC50 [6] of 21.5 nM and an EC50 [7] of 1.39 nM.
